# Measurements published in the supplement of paper PMC4604168 (melanoma cell lines).
# This is one part of the list. Single values are uncertain, as repeats are few or missing.
# Test system: WM1745
# Experiment: cell count relative to DMSO control; melanoma cells; higher = more viable cells
# Conditions: library dose: low library concentration; 72 h
# 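Also: cell number obtained by counting DAPI-stained nuclei in high-throughput microscope images with image analysis software, screen run in 1,536-well plates.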
row,SMILES,cell count
1,"CO[C@@H]1[C@H](N(C)C(=O)c2ccccc2)C[C@H]2O[C@]1(C)n1c3ccccc3c3c4c(c5c6ccccc6n2c5c31)C(=O)NC4 [Midostaurin] + CN(NC(=O)CC(=O)NN(C)C(=S)c1ccccc1)C(=S)c1ccccc1 [STA4783] (first compound 0.08 µM, partner dose 0.006 µM)",52.1%
2,"Cc1nc(Nc2ncc(C(=O)Nc3c(C)cccc3Cl)s2)cc(N2CCN(CCO)CC2)n1 [dasatanib] + CC(C)CCN1c2nc(Nc3cc(F)c(O)c(F)c3)ncc2N(C)C(=O)C1C [BID1870] (first compound 0.004 µM, partner dose 0.2 µM)",72.6%
3,"NC(=O)Nc1cc(-c2cccc(F)c2)sc1C(=O)N[C@H]1CCCNC1 + COC(=O)c1sccc1S(=O)(=O)Nc1ccc(Nc2ccccc2)cc1OC [GSK0660] (first compound 0.02 µM, partner dose 1 µM)",122%
4,"Cc1nc(Nc2ncc(C(=O)Nc3c(C)cccc3Cl)s2)cc(N2CCN(CCO)CC2)n1 [dasatanib] + NCC(=O)Nc1ccc(-n2nc(C(F)(F)F)cc2-c2ccc3c(ccc4ccccc43)c2)cc1 [OSU03012] (first compound 0.004 µM, partner dose 1 µM)",64.8%
5,"NC(=O)Nc1cc(-c2cccc(F)c2)sc1C(=O)N[C@H]1CCCNC1 + O=C(O)C(=O)Nc1sc2c(c1C(=O)O)CCNC2 [TCS401] (first compound 0.02 µM, partner dose 1.66667 µM)",89.1%
6,"OCCn1cc(-c2cnc3nnn(Cc4ccc5ncccc5c4)c3n2)cn1 + COc1ccc(COc2ccc(Cc3cnc(N)nc3N)cc2OC)cc1 [GW2580] (first compound 1 µM, partner dose 1 µM)",104%
7,"Cc1nc(Nc2ncc(C(=O)Nc3c(C)cccc3Cl)s2)cc(N2CCN(CCO)CC2)n1 [dasatanib] + O=C(Nc1ccccc1)c1cc([N+](=O)[O-])ccc1Cl [GW9662] (first compound 0.004 µM, partner dose 2 µM)",67.4%
8,"NC(=O)Nc1cc(-c2cccc(F)c2)sc1C(=O)N[C@H]1CCCNC1 + COc1cc2ncnc(Nc3ccc(Oc4ccccc4)cc3)c2cc1OC [SrcI1] (first compound 0.02 µM, partner dose 2 µM)",65.2%
9,"NC(=O)Nc1cc(-c2cccc(F)c2)sc1C(=O)N[C@H]1CCCNC1 + COc1cc2c(Oc3ccc4[nH]c(C)cc4c3F)ncnc2cc1OCCCN1CCCC1 [cediranib] (first compound 0.02 µM, partner dose 0.4 µM)",108%
10,"C=CCn1c(=O)c2cnc(Nc3ccc(N4CCN(C)CC4)cc3)nc2n1-c1cccc(C(C)(C)O)n1 + N#Cc1c(O)c2c(-c3ccc(-c4ccccc4O)cc3)csc2[nH]c1=O [A769662] (first compound 0.02 µM, partner dose 2 µM)",89%
11,"NC(=O)Nc1cc(-c2cccc(F)c2)sc1C(=O)N[C@H]1CCCNC1 + c1cc(-c2cnn3cc(-c4ccc(OCCN5CCCCC5)cc4)cnc23)ccn1 [Dorsomorphin] (first compound 0.02 µM, partner dose 0.4 µM)",86.9%
12,"Cc1nc(Nc2ncc(C(=O)Nc3c(C)cccc3Cl)s2)cc(N2CCN(CCO)CC2)n1 [dasatanib] + O=C(CCCCCCC(=O)Nc1ccccc1)NO [vorinostat] (first compound 0.004 µM, partner dose 0.08 µM)",73.5%
13,"Cc1nc(Nc2ncc(C(=O)Nc3c(C)cccc3Cl)s2)cc(N2CCN(CCO)CC2)n1 [dasatanib] + Nc1cccc2c1CN(C1CCC(=O)NC1=O)C2=O [lenalidomide] (first compound 0.004 µM, partner dose 1 µM)",63.5%
14,"C=CCn1c(=O)c2cnc(Nc3ccc(N4CCN(C)CC4)cc3)nc2n1-c1cccc(C(C)(C)O)n1 + C[C@@H]1CCN(C(=O)CC#N)C[C@@H]1N(C)c1ncnc2[nH]ccc12 [CP690550] (first compound 0.02 µM, partner dose 1 µM)",80%
15,"CO[C@@H]1[C@H](N(C)C(=O)c2ccccc2)C[C@H]2O[C@]1(C)n1c3ccccc3c3c4c(c5c6ccccc6n2c5c31)C(=O)NC4 [Midostaurin] + O=C(Nc1ccccc1)c1cc([N+](=O)[O-])ccc1Cl [GW9662] (first compound 0.08 µM, partner dose 2 µM)",86.3%
16,"NC(=O)Nc1cc(-c2cccc(F)c2)sc1C(=O)N[C@H]1CCCNC1 + COc1ccc(-c2ccc3c(N4CCOCC4)nc(N4C[C@@H](C)O[C@@H](C)C4)nc3n2)cc1CO [KU0063794] (first compound 0.02 µM, partner dose 0.02 µM)",90.4%

row,SMILES,cell count
1,"CO[C@@H]1[C@H](N(C)C(=O)c2ccccc2)C[C@H]2O[C@]1(C)n1c3ccccc3c3c4c(c5c6ccccc6n2c5c31)C(=O)NC4 [Midostaurin] + Oc1nc(-c2ccc(C(F)(F)F)cc2)nc2c1CSCC2 [XAV939] (first compound 0.08 µM, partner dose 2 µM)",61%
2,"C[C@]1(c2nc3c(C(N)=O)cccc3[nH]2)CCCN1 [Veliparib] + Cc1cc(N2CCOCC2)cc2[nH]c(-c3c(NC[C@@H](O)c4cccc(Cl)c4)cc[nH]c3=O)nc12 [BMS536924] (first compound 1.4 µM, partner dose 0.2 µM)",86.3%
3,"CN(C)S(=O)(=O)c1ccc2c(c1)/C(=C/c1cc3c([nH]1)CCCC3)C(=O)N2 + CCCCCCCCCCCC1=C(O)C(=O)C=C(O)C1=O [Embelin] (first compound 0.4 µM, partner dose 1.2 µM)",93.4%
4,"C[C@]1(c2nc3c(C(N)=O)cccc3[nH]2)CCCN1 [Veliparib] + c1cc(-c2cnn3cc(-c4ccc(OCCN5CCCCC5)cc4)cnc23)ccn1 [Dorsomorphin] (first compound 1.4 µM, partner dose 0.4 µM)",82.3%
5,"NC(=O)Nc1cc(-c2cccc(F)c2)sc1C(=O)N[C@H]1CCCNC1 + Cn1cc(/C=C2\C(=O)Nc3cccnc32)c2ccccc21 [GW441756] (first compound 0.02 µM, partner dose 0.4 µM)",83.3%
6,"CN(C)S(=O)(=O)c1ccc2c(c1)/C(=C/c1cc3c([nH]1)CCCC3)C(=O)N2 + Cc1cc([N+](=O)[O-])ccc1NS(=O)(=O)c1cc(Cl)ccc1Cl [FH535] (first compound 0.4 µM, partner dose 1 µM)",86.7%
7,"NC(=O)Nc1cc(-c2cccc(F)c2)sc1C(=O)N[C@H]1CCCNC1 + O=C(Nc1ccccc1)c1cc([N+](=O)[O-])ccc1Cl [GW9662] (first compound 0.02 µM, partner dose 2 µM)",108%
8,"C[C@]1(c2nc3c(C(N)=O)cccc3[nH]2)CCCN1 [Veliparib] + O=C(O)C(=O)Nc1sc2c(c1C(=O)O)CCNC2 [TCS401] (first compound 1.4 µM, partner dose 1.66667 µM)",80.3%
9,"CO[C@@H]1[C@H](N(C)C(=O)c2ccccc2)C[C@H]2O[C@]1(C)n1c3ccccc3c3c4c(c5c6ccccc6n2c5c31)C(=O)NC4 [Midostaurin] + NC(=O)Nc1cc(-c2cccc(F)c2)sc1C(=O)N[C@H]1CCCNC1 [AZD7762] (first compound 0.08 µM, partner dose 0.02 µM)",84.4%
10,"CN(C)S(=O)(=O)c1ccc2c(c1)/C(=C/c1cc3c([nH]1)CCCC3)C(=O)N2 + CN(NC(=O)CC(=O)NN(C)C(=S)c1ccccc1)C(=S)c1ccccc1 [STA4783] (first compound 0.4 µM, partner dose 0.006 µM)",26.2%
11,"CO[C@@H]1[C@H](N(C)C(=O)c2ccccc2)C[C@H]2O[C@]1(C)n1c3ccccc3c3c4c(c5c6ccccc6n2c5c31)C(=O)NC4 [Midostaurin] + CC(C)CCN1c2nc(Nc3cc(F)c(O)c(F)c3)ncc2N(C)C(=O)C1C [BID1870] (first compound 0.08 µM, partner dose 0.2 µM)",80%
12,"C=CCn1c(=O)c2cnc(Nc3ccc(N4CCN(C)CC4)cc3)nc2n1-c1cccc(C(C)(C)O)n1 + COc1cc2c(Oc3ccc4[nH]c(C)cc4c3F)ncnc2cc1OCCCN1CCCC1 [cediranib] (first compound 0.02 µM, partner dose 0.4 µM)",74.2%
13,"CO[C@@H]1[C@H](N(C)C(=O)c2ccccc2)C[C@H]2O[C@]1(C)n1c3ccccc3c3c4c(c5c6ccccc6n2c5c31)C(=O)NC4 [Midostaurin] + O=C(O)c1ccc(-c2c[nH]c3ncc(-c4ccccc4)cc23)cc1C1CCCC1 [GSK650394] (first compound 0.08 µM, partner dose 0.16 µM)",93%
14,"C=CCn1c(=O)c2cnc(Nc3ccc(N4CCN(C)CC4)cc3)nc2n1-c1cccc(C(C)(C)O)n1 + Cc1ccc(NC(=O)c2cccc(N(C)C)c2)cc1NC(=O)c1ccc(O)cc1 [ZM336372] (first compound 0.02 µM, partner dose 2 µM)",86.4%
15,"CO[C@@H]1[C@H](N(C)C(=O)c2ccccc2)C[C@H]2O[C@]1(C)n1c3ccccc3c3c4c(c5c6ccccc6n2c5c31)C(=O)NC4 [Midostaurin] + CN(C)S(=O)(=O)c1ccc2c(c1)/C(=C/c1cc3c([nH]1)CCCC3)C(=O)N2 [SU6656] (first compound 0.08 µM, partner dose 0.4 µM)",58.5%
16,"NC(=O)Nc1cc(-c2cccc(F)c2)sc1C(=O)N[C@H]1CCCNC1 + Oc1cc(-c2nc(-c3ccccc3)[nH]c2-c2ccncc2)ccc1Cl [L779450] (first compound 0.02 µM, partner dose 0.2 µM)",97%
